Measured values from PubChem BioAssay AID485341 (National Center for Advancing Translational Sciences (NCATS), 2010).
Among all 330,000 compounds or so, about 1,700 (0.52%) were called active. The shares of active, inactive and inconclusive entries below differ from those in the screen. Calls come from the whole dose curve; as a rule, active = well fitted inhibition curve with a large enough effect; inconclusive = small, poorly fitted or top-dose-only effect; inactive = no such curve, though single readings can be large or run the other way. Where the call is inconclusive, the potency comes from a doubtful curve fit.

What follows are compounds tested against Beta-lactamase (Escherichia coli (strain K12)) (UniProt P00811) (assay: qHTS Inhibitors of AmpC Beta-Lactamase (assay without detergent)). Details: AmpC nitrocefin hydrolysis, absorbance 480 nm, 0.0001% Triton; activity change, negative = inhibition: at 57.1 µM (top of the series) unless noted.
UniProt P00811, sequence (P00811 whole entry, looked up): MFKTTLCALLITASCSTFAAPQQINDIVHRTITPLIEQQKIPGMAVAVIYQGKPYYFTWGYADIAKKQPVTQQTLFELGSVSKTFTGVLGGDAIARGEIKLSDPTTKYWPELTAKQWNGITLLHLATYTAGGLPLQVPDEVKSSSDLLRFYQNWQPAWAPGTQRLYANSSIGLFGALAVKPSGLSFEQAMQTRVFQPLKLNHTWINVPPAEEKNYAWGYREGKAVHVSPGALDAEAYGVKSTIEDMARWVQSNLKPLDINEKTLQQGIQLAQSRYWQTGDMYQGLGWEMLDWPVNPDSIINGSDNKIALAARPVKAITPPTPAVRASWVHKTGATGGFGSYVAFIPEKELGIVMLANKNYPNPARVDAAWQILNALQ
In short: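 AmpC (5.3 nM in the dispensed reagent) in 20 mM phosphate pH 7.0 with 0.01% (detergent screen) or 0.0001% Triton X-100 was preincubated with compounds for 15 min at room temperature. Nitrocefin was then added from an 800 uM solution, and hydrolysis was followed at 480 nm.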
Note: nearly all actives have a fitted effect of over 20% in size.
Potency is the fitted concentration of half-maximal effect; tags give direction and shape of the fitted curve.
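Throughout, for activity change, negative = inhibition: plate controls were no compound for no effect and no enzyme for full effect.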

SMILES	Potency	activity change, negative = inhibition
S=C(NNC(=S)NC1CC2CCC1C2)NC1CC2C=CC1C2 (configuration not stated)	inconclusive: 22.4 µM [inhibitor, single point]	
Cc1c(S(=O)(=O)NC2CCCCCC2)c(=O)n(C)c(=O)n1C	inconclusive: 35.5 µM [inhibitor, single point]	
Nn1c(COc2ccccc2F)nnc1SCC(=O)NC1CCS(=O)(=O)C1 (configuration not stated)	inconclusive: 39.8 µM [inhibitor, single point]	
CCN(CC)C(=O)C1CCCN(c2ccc([N+](=O)[O-])cc2/C=N/NC(=O)c2ccccc2)C1 (configuration not stated)	inconclusive: 3.55 µM [inhibitor, full curve, poor fit]	
CC(Oc1ccccc1F)C(=O)NNC(=O)CCS(=O)(=O)c1ccccc1Cl (configuration not stated)	inconclusive: 31.6 µM [inhibitor, single point]	
CSc1ccc(/C=c2\s/c(=C\C(=O)C(C)(C)C)n(CC(=O)NCCC3=CCCCC3)c2=O)cc1	inconclusive: 1.12 µM [inhibitor, full curve, poor fit]	
CC(=O)c1cc(CN2CCC(N3CCC(C(=O)N4CCCC4)CC3)CC2)cs1	inconclusive: 8.91 µM [inhibitor, full curve, poor fit]	
N#Cc1nc(-c2ccccc2F)oc1NCc1cccc2c1OCO2	inconclusive: 3.16 µM [inhibitor, single point]	
Cc1nn(C2CCCCC2)c(N)c1-c1ccccc1		inactive: -15.3%
CCCCOC(=O)c1ccc(NC(=O)c2ocnc2C)cc1		inactive: 61%
COC(=O)c1nnc(-c2ccccc2)nc1OC	inconclusive: 0.631 µM [inhibitor, partial curve, poor fit]	
COc1ccccc1-c1cn[nH]c1-c1ccc(OCc2ccc(F)cc2)cc1O	active: 7.08 µM	
O=C1C(Cc2ccccc2)Nc2ncnc(N3CCN(c4ccccc4)CC3)c2N1Cc1ccc(Br)cc1 (configuration not stated)	inconclusive: 3.55 µM [inhibitor, partial curve]	
CN(CC(=O)NC1CCCCCC1)S(=O)(=O)c1ccccc1	inconclusive: 6.31 µM [inhibitor, single point]	
Cc1ccccc1OCC(=O)Nc1nc(C)c(C(=O)N(C)C)s1	inconclusive: 39.8 µM [inhibitor, single point]	
Cc1cccc(S(=O)(=O)Nc2cccc3c2C(=O)c2ccccc2-3)c1	inconclusive: 0.141 µM [inhibitor, full curve, poor fit]	
O=C(Cn1c(=O)sc2ccccc21)NCc1ccccn1	active: 44.7 µM	
O=C(CCS(=O)(=O)c1ccc2c(c1)NC(=O)CO2)NCCc1ccccc1		inactive: -23.5%
N#CCCN(C(=O)CSc1ncccn1)c1ccc2c(c1)OCCO2		inactive: -32.4%
CCOc1ccc2nc(N3CCCC(C(=O)NCCCN4CCOCC4)C3)sc2c1 (configuration not stated)	active: 3.16 µM	
Cc1cc(Cl)c(S(=O)(=O)Nc2ccon2)cc1OCC(=O)NC1CCCCC1	active: 0.224 µM	
Cc1ccc(C2SCC(=O)Nc3c2c(=O)[nH]n3C2CCOC(C)(C)C2)cc1 (configuration not stated)	inconclusive: 0.282 µM [inhibitor, full curve, poor fit]	
O=C(CSc1nnc2ccccn12)c1ccccc1	active: 44.7 µM	
Cc1cccn2c(=O)nc(SCC(=O)NCc3ccccc3Cl)nc12	inconclusive: 25.1 µM [inhibitor, single point]	

SMILES	Potency	activity change, negative = inhibition
Nc1cccn2c(-c3ccc(Cl)c(Cl)c3)cnc12	inconclusive: 10 µM [inhibitor, partial curve, poor fit]	
CC1CCN(S(=O)(=O)c2cn(C)c(=O)n(C)c2=O)CC1	inconclusive: 5.62 µM [inhibitor, full curve, poor fit]	
CCN1CCN(C(=O)CS(=O)(=O)Cc2nc(-c3ccc(C)cc3)oc2C)CC1	active: 10 µM	
O=C(CSc1nc(Cc2ccccc2)nc2ccccc12)c1ccc2c(c1)OCCO2	inconclusive: 3.55 µM [inhibitor, single point]	
O=[N+]([O-])c1ccc(Nc2ccc3ccccc3c2)nc1	active: 0.316 µM	
Cc1onc(-c2ccccc2Cl)c1C(=O)Nc1sc2c(c1C(N)=O)CCC(C)C2 (configuration not stated)		inactive: -40.3%
O=C(Nc1ccc(C(=O)OC[C@@H]2CCCN3CCCC[C@H]23)cc1)c1cccc(Br)c1	inconclusive: 3.16 µM [inhibitor, single point]	
CCCCn1nc2cc(C(=O)NC3CCc4ccccc43)ccc2c1OCC (configuration not stated)	inconclusive: 6.31 µM [inhibitor, single point]	
O=S(=O)(NCCn1ccc2ccccc21)c1ccccc1	active: 25.1 µM	
CCOC(=O)N1CCC(NC(=O)Cn2cc3c(n2)CCCCC3)CC1	active: 35.5 µM	
O=C(O)CSC1c2ccccc2C(=O)N1c1ccccc1 (configuration not stated)	inconclusive: 5.62 µM [inhibitor, partial curve, poor fit]	
CC1CC(=O)Nc2ccccc2N1S(=O)(=O)c1ccccc1 (configuration not stated)	inconclusive: 8.91 µM [inhibitor, single point]	
Cc1ccc(-n2ncc3c(SCc4ccccc4)ncnc32)cc1		inactive: -18.9%
Cc1cc(C(=O)CSc2nnnn2-c2ccc(O)cc2)c(C)n1Cc1ccc2c(c1)OCO2	active: 2.24 µM	
Cc1ccccc1-c1ccc(C(=O)Nc2cccc(F)c2)o1	inconclusive: 22.4 µM [inhibitor, single point]	
Cc1cc(SCC(=O)NC2(C#N)CCCCC2)nc2c(C)cccc12	active: 31.6 µM	
O=C(Cc1ccc2ccccc2c1)Nc1ccccc1Br		inactive: -8.85%
COC(=O)C1(C(=O)OC)NOC2C(=O)N(c3ccccc3)C(=O)C21 (configuration not stated)	inconclusive: 0.316 µM [inhibitor, full curve, poor fit]	
Cc1ccc(C)c(S(=O)(=O)N2CCN(C(=O)CSC(=S)N3CCCC3)CC2)c1	inconclusive: 39.8 µM [inhibitor, single point]	
Cc1ccc(S(=O)(=O)N/N=C\c2ccc3c(c2)OCO3)cc1C	inconclusive: 25.1 µM [inhibitor, partial curve]	
CC1CCc2nn(CC(=O)N3CCCCCC3)cc2C1 (configuration not stated)	active: 0.562 µM	
Cc1nn(Cc2ccc(C(=O)NN)cc2)c(C)c1Cl		inactive: -8.97%
COc1ccc(NC(=O)c2ccc3c(c2)NC(=O)CS3)cc1S(=O)(=O)Nc1ccc(Br)cc1	inconclusive: 3.98 µM [inhibitor, single point]	
Cc1ccsc1/C=N/NC(=O)Nc1ccccc1		inactive: -15.2%

SMILES	Potency	activity change, negative = inhibition
O=C(N/N=C/c1ccc2c(c1)OCO2)c1ccc(NC(=O)c2ccc(F)cc2)cc1	inconclusive: 15.8 µM [inhibitor, partial curve]	
COc1cc2[nH]c(=O)n(CCC(=O)N3CCc4ccccc4C3)c(=O)c2cc1OC		inactive: -1.48%
COc1cccc(Nc2nnc(SCc3nc4ccccc4s3)s2)c1	inconclusive: 20 µM [inhibitor, partial curve]	
Cc1cc(C(=O)N/N=C/c2ccc(Cl)c([N+](=O)[O-])c2)c(C)n1-c1ccc(F)cc1	active: 15.8 µM	
O=C1C(=O)N(CCCc2ccccc2)c2ccccc21	inconclusive: 35.5 µM [inhibitor, single point]	
O=S(=O)(Nc1ccc(Br)cn1)c1ccc2ccccc2c1	active: 7.08 µM	
Cc1ccc(S(=O)(=O)/C(C#N)=C/c2c[nH]c3ccccc23)cc1	active: 17.8 µM	
Cc1ccccc1N1CCN(C(=O)c2ccc(Oc3ccc(C(F)(F)F)cn3)cc2)CC1	inconclusive: 1.26 µM [inhibitor, partial curve, poor fit]	
CSCc1ccc(C(=O)NCc2ccc(C)cc2)cc1		inactive: -16.1%
COc1cc(C2NC(=O)NC(C)=C2C(=O)OC2CCCC(C)C2)ccc1O (configuration not stated)	inconclusive: 3.98 µM [inhibitor, single point]	
COc1ccc(Cc2nc(-c3ccc(-n4cccc4)cc3)no2)cc1OC	active: 8.91 µM	
CCn1c(=NC(=O)c2ccco2)sc2cccc(F)c21	active: 3.55 µM	
O=C(Nc1ccc(Cl)c(Cl)c1)Nc1ccccc1O	inconclusive: 39.8 µM [inhibitor, single point]	
COc1cc(OC)c2c(c1)OC(c1ccc(OC)c(OC)c1)C(O)C2=O (configuration not stated)	inconclusive: 89.1 µM [inhibitor, partial curve, poor fit]	
CCOC(=O)/C=c1\s/c(=C\c2ccc(C)cc2)c(=O)n1CC(=O)NCc1ccco1	inconclusive: 4.47 µM [inhibitor, full curve, poor fit]	
COC(=O)COc1ccc(NS(=O)(=O)c2cccc([N+](=O)[O-])c2)cc1	inconclusive: 25.1 µM [inhibitor, single point]	
COc1ccc(S(=O)(=O)N2CCCCC2)cc1NC(=O)CCOc1cc(C)ccc1C		inactive: -21.9%
Cc1cc(C(=O)OCC(=O)Nc2sc3c(c2C#N)CCC(C)C3)c2ccccc2n1 (configuration not stated)	active: 14.1 µM	
Cc1cc(C(=O)Nc2cccc(-c3ccc(N4CCOCC4)nn3)c2)ccc1[N+](=O)[O-]	inconclusive: 35.5 µM [inhibitor, single point]	
COc1ccc(-c2ccc(NS(=O)(=O)c3cc([N+](=O)[O-])c(C)c([N+](=O)[O-])c3)cc2)nn1	inconclusive: 17.8 µM [inhibitor, partial curve]	
Cc1cccnc1NC(=O)c1ccc(NS(=O)(=O)/C=C/c2ccccc2)cc1	inconclusive: 2.82 µM [inhibitor, partial curve]	
O=C(Nc1ccccc1Cl)NC1CCCCCCC1	active: 35.5 µM	
CCOc1ccc(C2CC(c3cccc(OC)c3)n3nc(N)nc3N2)cc1 (configuration not stated)	active: 4.47 µM	
COc1ccc(NC(=O)C(=O)NCC(c2ccco2)N2CCc3ccccc3C2)cc1 (configuration not stated)	active: 28.2 µM	
